The campaign covered roughly 310,000 compounds. About 2,200 (0.71%) showed an effect of 50% or more. Effects have a minus sign here. The list shows a part of the results.
What follows are molecules tested against human ether-à-go-go-related gene (hERG) potassium channel (human, UniProt Q12809) (assay: primary screen, population patch clamp on CHO cells stably expressing hERG).
Chain of human ether-à-go-go-related gene (hERG) potassium channel (Q12809 whole entry, looked up): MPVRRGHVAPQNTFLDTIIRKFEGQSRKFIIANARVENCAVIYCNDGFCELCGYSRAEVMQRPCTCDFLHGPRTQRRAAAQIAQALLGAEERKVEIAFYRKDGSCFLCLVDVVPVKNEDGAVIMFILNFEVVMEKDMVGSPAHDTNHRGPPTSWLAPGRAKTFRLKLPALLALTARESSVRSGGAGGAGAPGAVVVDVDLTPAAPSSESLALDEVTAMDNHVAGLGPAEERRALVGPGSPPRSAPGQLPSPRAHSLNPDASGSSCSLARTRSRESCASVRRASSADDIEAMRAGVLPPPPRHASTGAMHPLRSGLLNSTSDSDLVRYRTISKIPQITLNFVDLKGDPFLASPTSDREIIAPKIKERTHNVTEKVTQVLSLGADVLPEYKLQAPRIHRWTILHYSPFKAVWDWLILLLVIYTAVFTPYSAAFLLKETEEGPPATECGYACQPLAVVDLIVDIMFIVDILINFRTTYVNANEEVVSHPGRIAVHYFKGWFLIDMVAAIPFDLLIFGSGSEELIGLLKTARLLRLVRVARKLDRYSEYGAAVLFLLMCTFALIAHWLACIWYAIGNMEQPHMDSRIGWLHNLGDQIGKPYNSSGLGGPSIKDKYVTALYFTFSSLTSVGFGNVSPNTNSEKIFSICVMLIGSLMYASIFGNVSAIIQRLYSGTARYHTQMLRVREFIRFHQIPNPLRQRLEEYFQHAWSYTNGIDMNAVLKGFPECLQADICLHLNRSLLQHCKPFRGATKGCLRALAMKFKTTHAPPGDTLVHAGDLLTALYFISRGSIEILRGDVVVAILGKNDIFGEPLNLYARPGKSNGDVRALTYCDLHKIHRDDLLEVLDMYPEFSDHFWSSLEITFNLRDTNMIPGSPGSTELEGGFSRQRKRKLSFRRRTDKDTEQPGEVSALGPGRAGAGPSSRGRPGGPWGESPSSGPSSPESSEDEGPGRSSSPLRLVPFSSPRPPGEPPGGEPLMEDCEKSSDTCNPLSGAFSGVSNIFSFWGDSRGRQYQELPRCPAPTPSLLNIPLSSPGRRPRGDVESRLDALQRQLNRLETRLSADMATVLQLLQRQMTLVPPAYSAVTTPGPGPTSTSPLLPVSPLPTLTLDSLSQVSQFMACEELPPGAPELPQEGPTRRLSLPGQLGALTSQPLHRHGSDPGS

First: C=CCn1c(CSc2nc3ccccc3s2)nnc1SCC(=O)OCC
Second: CC(C)(C)NC(=O)Cn1c(SCC(=O)Nc2nccs2)nc2ccccc21
The “hERG current change (%, negative = inhibition) at 1uM” value of the first is lower: -21.4% for the first, 10.4% for the second.

Compared with `COc1cccc(C(=O)C2CCCN(Cc3ccon3)C2)c1` (stereo not drawn), `COC(=O)c1cccc(C(=O)N2CCCC(CNC(=O)c3ccccc3Cl)C2)c1` (stereo not drawn) is lower in “hERG current change (%, negative = inhibition) at 1uM” value: 14.5% for the first, 10.5% for the second.

Going from `CN(/C=C/C(=O)C(F)(F)C(F)(F)F)Cc1ccccc1` to `CCOC(=O)NC(Nc1ccc(OC)cc1)(C(F)(F)F)C(F)(F)F`, the “hERG current change (%, negative = inhibition) at 1uM” value rises from 1.5% to 17.3%.

First: O=C(CCCn1c(SCC(=O)NCCc2ccccc2)nc2ccccc2c1=O)NCC1CCCO1 (stereo not drawn)
Second: CCCCNC(=O)CSc1nc2cc3c(cc2c(=O)n1CCCC(=O)NCCc1ccc(OC)c(OC)c1)OCO3
The “hERG current change (%, negative = inhibition) at 1uM” value of the first is lower: -15% for the first, 7.37% for the second.

Going from `O=C(NCc1nnc(SCC(=O)N2CCOCC2)o1)c1ccccc1F` to `O=C(NCCN1CCOCC1)C1CCC(=O)N1Cc1ccc(F)cc1` (stereo not drawn), the “hERG current change (%, negative = inhibition) at 1uM” value falls from 18.9% to -4.74%.

First: Cc1cc(NC2CCCCC2)n2c(n1)nc1ccccc12
Second: CC(=O)c1ccc(-c2nc3ccccc3n2C)o1
The “hERG current change (%, negative = inhibition) at 1uM” value of the first is lower: -18.4% for the first, 4.15% for the second.

Going from `CC1CN(C2CCN(C(=O)c3cccc(Cl)c3)CC2)CC(C)O1` (stereo not drawn) to `O=C(C1CCC1)N1CCC(c2nc3c(nnn3Cc3c(F)cccc3Cl)c(=O)[nH]2)CC1`, the “hERG current change (%, negative = inhibition) at 1uM” value rises from 10.4% to 32.2%.

First: CN(C)CCCNC(=S)N1CCn2c(nc3ccccc32)C1
Second: Brc1ccccc1OCCCN1CCOCC1
The “hERG current change (%, negative = inhibition) at 1uM” value of the first is higher: 9.39% for the first, 8.45% for the second.

Going from `O=C(c1cccc([N+](=O)[O-])c1)N(c1ccccn1)c1ccccn1` to `N#Cc1cc([N+](=O)[O-])ccc1NCCc1ccccn1`, the “hERG current change (%, negative = inhibition) at 1uM” value rises from 9.69% to 9.77%.

Compared with `O=Cc1c(Cl)nc2ccccn12`, `Cc1nc2cc3ccccc3cc2n1C` is lower in “hERG current change (%, negative = inhibition) at 1uM” value: 14% for the first, 7.34% for the second.

Going from `CNC(=S)N1N=C(c2cccs2)CC1c1ccc(OC)cc1` (stereo not drawn) to `Cc1ccc(C2CC(c3cccc(Br)c3)Nc3nnnn32)cc1` (stereo not drawn), the “hERG current change (%, negative = inhibition) at 1uM” value falls from 9.91% to -0.515%.

Going from `COc1ccc(-n2c(C)cc(=O)c3c2CC(C)(C)CC3=O)cc1` to `COc1ccc(OC)c(NC(=O)COc2coc(CN3CCCc4ccccc43)cc2=O)c1`, the “hERG current change (%, negative = inhibition) at 1uM” value falls from 15.7% to 7.99%.

First: COc1cc(/C=C/C(=O)OCC(=O)N2CCCc3ccccc32)ccc1OC(F)F
Second: O=C(Cn1ncc2ccccc21)N1CCc2ccccc21
The “hERG current change (%, negative = inhibition) at 1uM” value of the first is lower: 5.31% for the first, 7.56% for the second.

Going from `Cc1c(N(C)C(=O)c2ccc3c(c2)OCO3)c(=O)n(-c2ccccc2)n1C` to `C=CCN1C(=O)C2(/C(=C(\O)c3ccc4c(c3)OCCO4)C(=O)C(=O)N2CCCOC)c2ccccc21` (stereo not drawn), the “hERG current change (%, negative = inhibition) at 1uM” value falls from 13.3% to 2.72%.

Going from `O=C(CSc1ccccc1C(=O)NCc1ccccc1)NC1CCCCCCC1` to `S=C(NCc1ccccc1)Nc1ccc2ccccc2c1`, the “hERG current change (%, negative = inhibition) at 1uM” value rises from -0.148% to 11.3%.

Going from `C=CCN(Cc1ccc(OC)c(OC)c1)C(=O)c1cc2cc(F)ccc2[nH]1` to `COc1ccc(CCN(C)C(=S)Nc2ccc(SC(F)F)cc2)cc1OC`, the “hERG current change (%, negative = inhibition) at 1uM” value falls from 7.69% to -9.97%.

First: COc1ccc(NC(C)=O)cc1NC(=O)CSc1nnc(-c2ccccc2)n1N
Second: COc1ccc(NC(=O)CSc2nnc(COc3ccccc3)n2Cc2ccco2)cc1OC
The “hERG current change (%, negative = inhibition) at 1uM” value of the first is higher: 15.9% for the first, -6.52% for the second.

First: COC(=O)CN(c1ccc(F)cc1)S(=O)(=O)c1ccccc1
Second: Cc1ccc(S(=O)(=O)N(CC(=O)N2CCC(C)CC2)Cc2ccccc2F)cc1
The “hERG current change (%, negative = inhibition) at 1uM” value of the first is higher: 8.4% for the first, -12.9% for the second.

Compared with `CCOC(=O)c1sc(N)c(C#N)c1COC(=O)CNC(=O)c1ccccc1`, `O=C(COC(=O)c1ccc[nH]c1=O)NCCCc1ccccc1` is higher in “hERG current change (%, negative = inhibition) at 1uM” value: 12.2% for the first, 21.3% for the second.

Going from `CCc1cc(CNC(=O)C2CCC(=O)N(Cc3cccc(F)c3)C2)on1` (stereo not drawn) to `CN(CC(=O)Nc1cccc(F)c1)C(=O)c1ccc2c(=O)n3c(nc2c1)CCC3`, the “hERG current change (%, negative = inhibition) at 1uM” value rises from 2.65% to 14.3%.

Going from `CN(C)CC(O)COc1cccc(OCC(O)CN(C)C)c1.Cl` (stereo not drawn) to `CCCc1ccc(OCC(O)CN2CCN(c3ccccn3)CC2)cc1.Cl` (stereo not drawn), the “hERG current change (%, negative = inhibition) at 1uM” value falls from 9.44% to -0.969%.

Compared with `CN1CCN(c2ccc(-c3cccc(NC(=O)COc4ccc(Cl)cc4)c3)nn2)CC1`, `Cc1ccc2cc(C#N)c(N3CCN(C(=O)c4ccccc4)CC3)nc2c1` is lower in “hERG current change (%, negative = inhibition) at 1uM” value: 0.874% for the first, -6.89% for the second.

First: COc1ccccc1N1CCN(C(=O)CNS(=O)(=O)c2ccc(Br)s2)CC1
Second: Cc1ccc(Cl)cc1N1CCN(S(=O)(=O)c2ccc3c(c2)CC(=O)N3C)CC1
The “hERG current change (%, negative = inhibition) at 1uM” value of the first is higher: 15.7% for the first, 0.913% for the second.

Going from `O=C(Nc1ccc(Br)cc1)c1cccc(N2C(=O)C3C4CCC(C4)C3C2=O)c1` (stereo not drawn) to `CC(C)(C)c1ccc(C(=O)N/N=C/c2cccc(Cl)c2)cc1`, the “hERG current change (%, negative = inhibition) at 1uM” value rises from 0.527% to 7.62%.

Going from `S=c1[nH]nc(-c2ccco2)n1/N=C/c1cccc(Cl)c1Cl` to `Fc1ccc(CSc2ccc(-c3ccco3)nn2)cc1`, the “hERG current change (%, negative = inhibition) at 1uM” value falls from 12.5% to 11%.

First: CCCCOCCCNC(=O)CN1C(=O)c2ccccc2C1=O
Second: CCN(C(=O)COC(=O)C1CCN(S(=O)(=O)c2cccs2)CC1)c1ccccc1
The “hERG current change (%, negative = inhibition) at 1uM” value of the first is lower: 12.5% for the first, 13.7% for the second.

First: O=C1C2C3c4ccccc4C(c4ccccc43)C2c2nc3ccccc3n21 (stereo not drawn)
Second: COC(=O)c1cccc(Nc2nc(-c3ccncc3)nc3ccccc23)c1
The “hERG current change (%, negative = inhibition) at 1uM” value of the first is lower: 6.14% for the first, 14.8% for the second.

Compared with `O=C(c1nnc(-c2ccncc2)o1)c1ccccc1Cl`, `c1ccc(-n2nnc(-c3cccnc3)n2)cc1` is higher in “hERG current change (%, negative = inhibition) at 1uM” value: 9.99% for the first, 14.1% for the second.

Going from `CCCNC(=O)c1cc(C)no1` to `Nc1c(C(=O)NCCc2ccccc2)nnn1Cc1ccc(Br)cc1F`, the “hERG current change (%, negative = inhibition) at 1uM” value falls from 8.61% to 5.23%.

Compared with `CCOC(=O)CNc1nc(Cl)nc(Nc2ccc(OC)cc2OC)n1`, `COc1cc(OC)c(NS(=O)(=O)c2coc(C(N)=O)c2)cc1Cl` is higher in “hERG current change (%, negative = inhibition) at 1uM” value: 11.1% for the first, 14.8% for the second.

Going from `COc1ccccc1-c1nnn(C/C(N)=N/O)n1` to `COc1ccccc1C(=O)Nc1cccc(Oc2c(F)c(F)c(F)c(F)c2F)c1`, the “hERG current change (%, negative = inhibition) at 1uM” value rises from 8.18% to 15.1%.

Going from `Cn1cccc1/C=N/NC(=O)CNc1ccc2ccccc2c1` to `Cc1cccnc1NC(=O)c1ccc(COc2ccccc2)o1`, the “hERG current change (%, negative = inhibition) at 1uM” value rises from 10.4% to 16.5%.

Compared with `O=C(CC12CC3CC(CC(C3)C1)C2)NCc1ccccc1`, `Cc1ccc(NC(=S)NCc2ccccc2)cc1[N+](=O)[O-]` is lower in “hERG current change (%, negative = inhibition) at 1uM” value: 14.2% for the first, 8.12% for the second.

Compared with `CC(=O)N[C@@H](Cc1c[nH]c2ccccc12)C(=O)NCCc1ccc(S(N)(=O)=O)cc1`, `CCc1ccc(NC(=O)C(=O)N/N=C(\C)CC(=O)NCc2ccc(Cl)cc2)cc1` is higher in “hERG current change (%, negative = inhibition) at 1uM” value: 7.43% for the first, 11.7% for the second.

Compared with `CC(C)(C)OC(=O)NCCCCCc1cn([C@@H](CO)C(=O)NCCCCCCCCCCC(=O)N2CCN(C(=O)OC(C)(C)C)CC2)nn1`, `Cc1cc(NC(=O)CCC(=O)N(CC(=O)NC2CCCC2)Cc2ccco2)no1` is higher in “hERG current change (%, negative = inhibition) at 1uM” value: 6.55% for the first, 21% for the second.

Compared with `CS(=O)(=O)N1CCC(C(=O)Nc2ccc3c(c2)OCO3)CC1`, `CC(C)(C)c1cc(C(=O)N/N=C/c2cc3c(cc2Br)OCO3)n[nH]1` is higher in “hERG current change (%, negative = inhibition) at 1uM” value: 1.5% for the first, 12.4% for the second.

Compared with `CC(=O)O[C@]1(C(C)=O)CC[C@H]2[C@@H]3C=C(C)C4=CC(=O)CC[C@]4(C)[C@H]3CC[C@@]21C`, `CC1CCCCC1NC(=O)COC(=O)c1ccc(N(C)C)cc1` (stereo not drawn) is higher in “hERG current change (%, negative = inhibition) at 1uM” value: 2.98% for the first, 9.14% for the second.

Compared with `CC(C)(C)C1CCC(C(=O)NCC(c2cccs2)N2CCOCC2)CC1` (stereo not drawn), `Cn1c(=O)c2c(ncn2CC(=O)Nc2ccccc2N2CCOCC2)n(C)c1=O` is lower in “hERG current change (%, negative = inhibition) at 1uM” value: 10% for the first, -0.0096% for the second.

Compared with `CC(C)[C@H](NC(=O)c1ccccc1F)C(=O)Nc1ccc(F)c(F)c1`, `CC[C@H](C)[C@H](NC(N)=O)C(=O)Nc1ccc(S(=O)(=O)NC(C)C)cc1` is higher in “hERG current change (%, negative = inhibition) at 1uM” value: 8.12% for the first, 10.6% for the second.

Compared with `CCOC(=O)c1nnn(-c2nonc2N)c1-c1ccc(OCC)cc1`, `CC(=O)N(C(C)=O)c1ncnc2c1c(-c1ccc(Cl)cc1)nn2C(C)(C)C` is higher in “hERG current change (%, negative = inhibition) at 1uM” value: 1.8% for the first, 20.8% for the second.

Compared with `CN(C)c1ccc(NC(=O)/C=C/c2c(Cl)cccc2Cl)cc1`, `N#CC1=C(SCC(=O)Nc2ccccc2)NC(=O)CC1c1ccc(O)cc1` (stereo not drawn) is lower in “hERG current change (%, negative = inhibition) at 1uM” value: 8.79% for the first, -0.709% for the second.

Compared with `CCC(C)[C@H](NC(=O)Nc1cccc(Br)c1)C(=O)OC` (stereo partly drawn), `CC(OC(=O)c1ccco1)C(=O)NC1CCCC1` (stereo not drawn) is higher in “hERG current change (%, negative = inhibition) at 1uM” value: 5.65% for the first, 5.74% for the second.

Going from `CN(CC(=O)Nc1ccc(F)cc1)C(=O)COC(=O)CCN1C(=O)C2CC=CCC2C1=O` (stereo not drawn) to `COC(=O)c1[nH]c(=O)c2ccccc2c1OCc1ccccc1`, the “hERG current change (%, negative = inhibition) at 1uM” value falls from 10.5% to 7.9%.

First: N#CC(C#N)=Cc1c[nH]c(=O)c(C#N)c1Nc1ccccc1
Second: COCc1cc(C)[nH]c(=O)c1C#N
The “hERG current change (%, negative = inhibition) at 1uM” value of the first is higher: 14.4% for the first, 10.7% for the second.

Compared with `COc1ccc(C2=NNC(c3cc(Cl)cc4c3OCOC4)C2)c(O)c1` (stereo not drawn), `COc1cc(NC(=O)c2cc(-c3cccs3)on2)cc(OC)c1OC` is lower in “hERG current change (%, negative = inhibition) at 1uM” value: 9.9% for the first, -3.39% for the second.
